{"source": "the supplement of paper PMC8728848", "test_in_all_cases": "glycan array binding signal (z-score within array); higher = stronger binding", "settings_in_all_cases": "glycan notation: IUPAC condensed, linker removed", "key": {"[1]": {"target": "Gal(b1-4)GlcNAc(b1-2)[Gal(b1-4)GlcNAc(b1-4)]Man(a1-3)[Gal(b1-4)GlcNAc(b1-2)[Gal(b1-4)GlcNAc(b1-6)]Man(a1-6)]Man(b1-4)GlcNAc(b1-4)GlcNAc", "method_in_brief": "(§1)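 Glycan array binding is given as a within-array Z-score, which can be read as non-binding when negative. The arrays, 3228 of them, came from the Consortium for Functional Glycomics database and were retained only where the protein sequence was available. Z-scores were averaged across arrays of the same protein sequence at different concentrations or buffers and across linkers.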"}, "[2]": {"target": "Gal(b1-4)GlcNAc(b1-2)[Gal(b1-4)GlcNAc(b1-4)]Man(a1-3)[GlcNAc(b1-4)][Gal(b1-4)GlcNAc(b1-2)Man(a1-6)]Man(b1-4)GlcNAc(b1-4)GlcNAc", "method_in_brief": "as §1"}, "[3]": {"target": "Gal(b1-4)GlcNAc(b1-2)[Gal(b1-4)GlcNAc(b1-4)]Man(a1-3)[GlcNAc(b1-4)][Gal(b1-4)GlcNAc(b1-2)[Gal(b1-4)GlcNAc(b1-6)]Man(a1-6)]Man(b1-4)GlcNAc(b1-4)GlcNAc", "method_in_brief": "as §1"}, "[4]": {"target": "Gal(b1-4)GlcNAc(b1-2)[Gal(b1-4)GlcNAc(b1-6)]Man(a1-6)[Gal(b1-4)GlcNAc(b1-2)Man(a1-3)]Man(b1-4)GlcNAc(b1-4)GlcNAc", "method_in_brief": "as §1"}, "[5]": {"target": "Gal(b1-4)GlcNAc(b1-2)[Gal(b1-4)GlcNAc(b1-6)]Man(a1-6)[Gal(b1-4)GlcNAc(b1-2)Man(a1-3)]Man(b1-4)GlcNAc(b1-4)[Fuc(a1-6)]GlcNAc", "method_in_brief": "as §1"}, "[6]": {"target": "Gal(b1-4)GlcNAc(b1-2)[Gal(b1-4)GlcNAc(b1-6)]Man(a1-6)[GlcNAc(b1-4)][Gal(b1-4)GlcNAc(b1-2)Man(a1-3)]Man(b1-4)GlcNAc(b1-4)GlcNAc", "method_in_brief": "as §1"}, "[7]": {"target": "Gal(b1-4)GlcNAc(b1-2)[Gal(b1-4)GlcNAc(b1-6)]Man(a1-6)[GlcNAc(b1-4)][Gal(b1-4)GlcNAc(b1-2)[Gal(b1-4)GlcNAc(b1-4)]Man(a1-3)]Man(b1-4)GlcNAc(b1-4)[Fuc(a1-6)]GlcNAc", "method_in_brief": "as §1"}, "[8]": {"target": "Gal(b1-4)GlcNAc(b1-3)Gal(b1-3)GalNAc", "method_in_brief": "as §1"}, "[9]": {"target": "Gal(b1-4)GlcNAc(b1-3)Gal(b1-3)GlcNAc", "method_in_brief": "as §1"}, "[10]": {"target": "Gal(b1-4)GlcNAc(b1-3)Gal(b1-4)Glc", "method_in_brief": "as §1"}, "[11]": {"target": "Gal(b1-4)GlcNAc(b1-3)Gal(b1-4)GlcNAc", "method_in_brief": "as §1"}, "[12]": {"target": "Gal(b1-4)GlcNAc(b1-3)Gal(b1-4)GlcNAc(b1-2)Man(a1-3)[Gal(b1-4)GlcNAc(b1-3)Gal(b1-4)GlcNAc(b1-2)Man(a1-6)]Man(b1-4)GlcNAc(b1-4)GlcNAc", "method_in_brief": "as §1"}, "[13]": {"target": "Gal(b1-4)GlcNAc(b1-3)Gal(b1-4)GlcNAc(b1-2)Man(a1-3)[Gal(b1-4)GlcNAc(b1-3)Gal(b1-4)GlcNAc(b1-2)Man(a1-6)]Man(b1-4)GlcNAc(b1-4)[Fuc(a1-6)]GlcNAc", "method_in_brief": "as §1"}, "[14]": {"target": "Gal(b1-4)GlcNAc(b1-3)Gal(b1-4)GlcNAc(b1-2)[Gal(b1-4)GlcNAc(b1-3)Gal(b1-4)GlcNAc(b1-6)]Man(a1-6)[Gal(b1-4)GlcNAc(b1-3)Gal(b1-4)GlcNAc(b1-2)Man(a1-3)]Man(b1-4)GlcNAc(b1-4)GlcNAc", "method_in_brief": "as §1"}, "[15]": {"target": "Gal(b1-4)GlcNAc(b1-3)Gal(b1-4)GlcNAc(b1-2)[Gal(b1-4)GlcNAc(b1-3)Gal(b1-4)GlcNAc(b1-6)]Man(a1-6)[Gal(b1-4)GlcNAc(b1-3)Gal(b1-4)GlcNAc(b1-2)Man(a1-3)]Man(b1-4)GlcNAc(b1-4)[Fuc(a1-6)]GlcNAc", "method_in_brief": "as §1"}, "[16]": {"target": "Gal(b1-4)GlcNAc(b1-3)Gal(b1-4)GlcNAc(b1-3)Gal(b1-4)GlcNAc", "method_in_brief": "as §1"}, "[17]": {"target": "Gal(b1-4)GlcNAc(b1-3)Gal(b1-4)GlcNAc(b1-3)Gal(b1-4)GlcNAc(b1-2)Man(a1-3)[Gal(b1-4)GlcNAc(b1-3)Gal(b1-4)GlcNAc(b1-3)Gal(b1-4)GlcNAc(b1-2)Man(a1-6)]Man(b1-4)GlcNAc(b1-4)GlcNAc", "method_in_brief": "as §1"}, "[18]": {"target": "Gal(b1-4)GlcNAc(b1-3)Gal(b1-4)GlcNAc(b1-3)Gal(b1-4)GlcNAc(b1-2)Man(a1-3)[Gal(b1-4)GlcNAc(b1-3)Gal(b1-4)GlcNAc(b1-3)Gal(b1-4)GlcNAc(b1-2)Man(a1-6)]Man(b1-4)GlcNAc(b1-4)[Fuc(a1-6)]GlcNAc", "method_in_brief": "as §1"}}, "note": "The list shows a part of the results."}
{"binder": "rAAL-2 (Agrocybe aegerita) (protein) MTSNVITQDLPIPVASRGFADIVGFGLDGVVIGRNAVNLQPFLAVKNFAQNAGGWLTTKHVRLIADTTGTGKGDIVGFGNAGVYVSVNNGKNTFADPPKMVIANFGYDAGGWRVEKHLRYLADIRKIGRADIIGFGEKGVLVSRNNGGLNFGPATLVLKDFGYDAGGWRLDRHLRFLADVTGNGHLDIVGFGDKHVFISRNNGDGTFAPAKSVIDNFCIDAGGWKIGDHPRFVADLTGDGTADIIGCGKAGCWVALNNGGGVFGQVKLVINDFGTDKGWQAAKHPRFIADLTGNGRGDVVGFGNAGVYVALNNGDGTFQSAKLVLKDFGVQQGWTVSKHRRFVVDLTGDGCADIIGFGEKETLVSYNDGKGNFGPVKALTNDFSFSGGKWAPETTVCWMANLDSSRH", "values": [{"measurement": "glycan array binding signal (z-score)", "setting": "[1]", "value": -0.304}, {"measurement": "glycan array binding signal (z-score)", "setting": "[2]", "value": -0.183}, {"measurement": "glycan array binding signal (z-score)", "setting": "[3]", "value": -0.301}, {"measurement": "glycan array binding signal (z-score)", "setting": "[4]", "value": -0.42}, {"measurement": "glycan array binding signal (z-score)", "setting": "[5]", "value": -0.252}, {"measurement": "glycan array binding signal (z-score)", "setting": "[6]", "value": -0.303}, {"measurement": "glycan array binding signal (z-score)", "setting": "[7]", "value": -0.503}, {"measurement": "glycan array binding signal (z-score)", "setting": "[8]", "value": -0.28}, {"measurement": "glycan array binding signal (z-score)", "setting": "[9]", "value": -0.112}, {"measurement": "glycan array binding signal (z-score)", "setting": "[10]", "value": -0.317}, {"measurement": "glycan array binding signal (z-score)", "setting": "[11]", "value": -0.201}, {"measurement": "glycan array binding signal (z-score)", "setting": "[12]", "value": 0.021}, {"measurement": "glycan array binding signal (z-score)", "setting": "[13]", "value": -0.429}, {"measurement": "glycan array binding signal (z-score)", "setting": "[14]", "value": -0.308}, {"measurement": "glycan array binding signal (z-score)", "setting": "[15]", "value": -0.236}, {"measurement": "glycan array binding signal (z-score)", "setting": "[16]", "value": -0.113}, {"measurement": "glycan array binding signal (z-score)", "setting": "[17]", "value": -0.084}, {"measurement": "glycan array binding signal (z-score)", "setting": "[18]", "value": -0.18}]}
